Laboratory results: publication PMC4336329 (PLoS ONE, 2015)
Screen size: about 310,000 compounds; about 14,000 (4.5%) showed an effect of 50% or more. The effect is printed as a negative number. The list shows a part of the results.

target: human ether-à-go-go-related gene (hERG) potassium channel (human, UniProt Q12809); assay: primary screen, population patch clamp on CHO cells stably expressing hERG
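Note: peak tail current of the secondary pulse compared with the same well before compound.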

human ether-à-go-go-related gene (hERG) potassium channel, sequence (Q12809 whole entry, looked up): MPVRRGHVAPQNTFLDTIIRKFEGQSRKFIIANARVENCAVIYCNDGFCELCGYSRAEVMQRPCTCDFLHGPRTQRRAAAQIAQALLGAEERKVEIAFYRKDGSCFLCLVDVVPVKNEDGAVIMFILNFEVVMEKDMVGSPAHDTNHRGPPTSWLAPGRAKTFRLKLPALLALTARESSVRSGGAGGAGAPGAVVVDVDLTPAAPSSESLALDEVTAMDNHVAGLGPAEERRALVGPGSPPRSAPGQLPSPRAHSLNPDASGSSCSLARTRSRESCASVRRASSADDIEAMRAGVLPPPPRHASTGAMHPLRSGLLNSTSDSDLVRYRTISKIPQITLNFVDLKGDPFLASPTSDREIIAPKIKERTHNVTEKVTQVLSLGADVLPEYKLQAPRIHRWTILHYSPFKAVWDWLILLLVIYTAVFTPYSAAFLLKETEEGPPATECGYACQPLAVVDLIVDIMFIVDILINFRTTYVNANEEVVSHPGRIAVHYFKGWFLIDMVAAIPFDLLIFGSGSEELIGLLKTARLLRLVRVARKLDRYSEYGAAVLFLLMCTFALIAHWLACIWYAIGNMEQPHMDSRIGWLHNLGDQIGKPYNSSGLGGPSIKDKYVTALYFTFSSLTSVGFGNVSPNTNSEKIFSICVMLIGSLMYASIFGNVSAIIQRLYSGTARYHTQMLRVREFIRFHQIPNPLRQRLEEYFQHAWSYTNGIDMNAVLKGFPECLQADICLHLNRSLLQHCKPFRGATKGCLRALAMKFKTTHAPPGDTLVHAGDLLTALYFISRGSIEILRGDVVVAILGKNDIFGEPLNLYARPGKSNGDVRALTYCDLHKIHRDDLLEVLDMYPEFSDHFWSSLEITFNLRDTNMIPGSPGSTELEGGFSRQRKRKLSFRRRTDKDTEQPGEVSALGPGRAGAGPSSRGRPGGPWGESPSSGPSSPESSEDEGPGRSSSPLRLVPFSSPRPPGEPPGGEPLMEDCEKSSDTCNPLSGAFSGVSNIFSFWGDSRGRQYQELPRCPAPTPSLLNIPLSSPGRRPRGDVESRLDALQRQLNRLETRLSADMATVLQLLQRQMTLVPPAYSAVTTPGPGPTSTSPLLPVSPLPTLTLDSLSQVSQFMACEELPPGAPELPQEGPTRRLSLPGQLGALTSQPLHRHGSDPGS

SMILES | hERG current change (%, negative = inhibition) at 10uM [%]
Cc1cc(C)n2ncc(C(=O)NCc3ccccc3)c2n1 | -6.85
Cc1cc(-c2csc3ncnc(N4CCN(C)CC4)c23)cc(C)c1C | -65.2
O=C(CN(C(=O)CNC(=O)c1cccs1)c1ccccc1F)NC1CCCCC1 | 9.96
O=C(CSc1ncnc2scc(-c3ccc(F)cc3)c12)c1ccc2c(c1)OCCO2 | 4.02
COc1ccc(C(=O)Nc2ccccc2C(=O)NCc2cccnc2)cc1OC | -4.86
COc1cc(C)ccc1OCCCCOc1ccccc1C(C)=O | 3.3
O=C(Nc1ccccc1N1CCOCC1)c1cc2c(s1)CCCCC2 | 6.4
N/C(Cc1ccc([N+](=O)[O-])cc1)=N\OC(=O)Cc1ccc(Cl)cc1 | -4.39
COc1ccc(-c2nnc(CSc3nc4ccccc4c(=O)n3CC(C)C)o2)cc1OC | -1.97
Cl.NNCc1cccc(O)c1 | 5.61
COCCn1c(SC(C)C(=O)Nc2ncc(Cl)cc2Cl)nc2ccccc21 (stereo not drawn) | -29.8
Cc1cc(C)c2nc(C(F)(F)F)nc(N3CCN(C(=O)c4ccco4)CC3)c2c1 | 6.1
Cc1c(Cl)cccc1NC(=O)CCC(=O)NNC(=O)c1ccccc1 | 7.19
COc1ccc(-c2noc(-c3ccccc3Cl)n2)cc1OC | 13.8
Cc1nc2sc(C(c3cccs3)N3CCN(c4ccccc4)CC3)c(O)n2n1 (stereo not drawn) | -9.85
O=C(CCc1nc2ccccc2[nH]1)Nc1ccccc1 | -4.56
CCOC(=O)c1ccc(CNC(=O)c2n[nH]c(=O)c3ccccc23)o1 | 12.5
CN(C)/C=N/c1nc2ncc(-c3ccc(Cl)cc3)c(/N=C/N(C)C)n2n1 | 9.96
CN1CCN(c2oc(COc3ccc(-c4ccccc4)cc3)nc2C#N)CC1 | -19

SMILES | hERG current change (%, negative = inhibition) at 10uM [%]
COc1cccc(C2c3c(oc4ccccc4c3=O)C(=O)N2CCCN2CCOCC2)c1 (stereo not drawn) | -21.1
NC(CSC12CC3CC(CC(C3)C1)C2)C(=O)O (stereo not drawn) | 15
COc1ccc(NC(=O)NCCCN2CCN(c3cc(C)ccc3C)CC2)cc1 | -92.2
CCCc1cc(=O)[nH]c(SCC(=O)Nc2ccc3c(c2)CCC3)n1 | 22.5
Cc1cc(C(=O)N2CCN(CCc3ccccc3)CC2)no1 | -6.68
CCC(C)c1ccc(NC(=S)NCc2cccs2)cc1 (stereo not drawn) | 1.58
O=S(=O)(c1cccc(Cl)c1)N1CN(CC2CCCO2)c2nc3ccccc3nc21 (stereo not drawn) | -10.2
CCOC(=O)C1=C(C)NC(=O)NC1c1ccc(OCC(=O)OC)c(OC)c1 (stereo not drawn) | -6.24
COc1cccc2cc(C(=O)NCc3ccc(C)cc3)c(=N)oc12 | -13.3
COc1ccc(N2C(=O)CC(N3CCN(S(=O)(=O)c4c(F)cccc4F)CC3)C2=O)cc1OC (stereo not drawn) | 3.4
CN(C)C(=S)NC1CCS(=O)(=O)C1 (stereo not drawn) | 5.62
Cc1ccc2c(cnn2C(=O)CCC(=O)N2CCCCC2C)c1 (stereo not drawn) | -7.08
O=C(NN=C1CCCC1)c1n[nH]c2c1CCCC2 | 26.7
COC(=O)c1ccc(-c2nc(O)c3cnccn23)cc1 | 14.1
COc1cc(CNCc2ccccn2)ccc1OCc1ccc(Cl)cc1.Cl | -56.8
CNS(=O)(=O)c1cccc(C(=O)OCC(=O)N2CC(C)OC(C)C2)c1 (stereo not drawn) | 26.3
CC1CCN(CC(=O)Nc2ccc(N3CCCCCC3)cc2)CC1.O=C(O)C(=O)O | -14.1
Nc1nonc1-n1nnc(C(=O)N/N=C/c2ccccn2)c1CNc1ccccc1 | -5.99
COCCCNC(=O)c1c(NC(=O)c2ccco2)n(Cc2ccccc2)c2nc3ccccc3nc12 | -5.81

SMILES | hERG current change (%, negative = inhibition) at 10uM [%]
CC(NC(=S)NC1CCCCC1)C(c1ccccc1)N1CCOCC1 (stereo not drawn) | 12.5
CCOc1ccc2nc(N3CCCC(C(=O)N4CCN(CC)CC4)C3)sc2c1 (stereo not drawn) | -28.9
CCOC(=O)N1CCN(C(=O)C2CCC(=O)N(CCc3ccccc3)C2)CC1 (stereo not drawn) | -0.101
Cn1c(=O)c(/C(N)=N/OC(=O)c2ccccc2)cn(-c2ccccc2)c1=O | 6.48
Cc1ccc(NC(=O)c2ccccc2)s1 | 1.37
O=C(COC(=O)C1CC2CCCC(C1)C2=O)NNC(=O)c1ccc([N+](=O)[O-])cc1 (stereo not drawn) | -21
COCCCNC(=O)c1nc2c(nnn2Cc2cc(C)ccc2C)c(=O)[nH]1 | 1.91
COC(=O)C1=C(c2ccc(OC(F)(F)F)cc2)C[C@@H]2CC[C@H]1N2C(=O)N1CCOCC1 | -29.4
C=CCOC(=O)/C(=C\c1ccccc1)NC(=O)c1ccco1 | 1.97
O=C(Nc1nc2c(s1)CCCC2)c1cccc(S(=O)(=O)N2CCCc3ccccc32)c1 | 12.8
Cc1cccc(N2C(=O)CC(Sc3ncn[nH]3)C2=O)c1 (stereo not drawn) | 17.3
O=C(Nc1nnc(CC(c2ccccc2)c2ccccc2)s1)c1ccco1 | 17.9
Cc1ccccc1OCCC(=O)OCC(=O)NCCc1ccc(S(N)(=O)=O)cc1 | -29
CCOC(=O)C1(CCOc2ccccc2)CCN(Cc2cccn2-c2cccnc2)CC1 | -51.8
OCCC1CN(Cc2nc3c(s2)CCCC3)CCN1Cc1ccsc1 (stereo not drawn) | -14.6
CC(C)(C)c1ccc(-c2nc(-c3ccncc3)no2)cc1 | 5.92
Cc1nc2ccccc2n1CC(=O)NCc1ccccc1 | 21.4
CN(C(=O)c1ccccc1F)C(c1ccccc1)c1ccccc1 | 8.16
CC(=O)c1ccc(N2C(=NC(=O)CCc3ccccc3)SC3CS(=O)(=O)CC32)cc1 (stereo not drawn) | -5.21
